Measured values as given in article PMC5318989.
Where a chain is given by its changes, count along the chain named. Numbers in names are those of the source. No constants are given. Whether binding was seen depends on the method and setting. Binding seen in cells or lysates may run through a third protein. Some results given as binding are weak or reduced against the parent protein; the word gives no strength. Sequences can lack the tags named with a protein. Blank lines part the entries; values can stand above or below the binder they belong to.

What was measured:
[1] = target: T1, GST-tagged mTRPM7 exchange segment (a.a. 1548-1576) (mouse) (UniProt Q923J1); test: pull-down; GST-exchange bound on glutathione agarose incubated overnight at 4 °C with HEK-293T lysate containing transiently expressed GFP-TRPM7-Cterm WT or mutants; detected by anti-GFP immunoblot; only the target purified
T1 sequence: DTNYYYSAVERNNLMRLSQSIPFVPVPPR

[2] = target: GFP-TRPM7-Cterm-S1565D (mouse) (UniProt Q923J1); test: pull-down; indirect read-out of kinase dimerization: if the dimer of GFP-TRPM7-Cterm in the HEK-293T lysate is disrupted, GST-exchange on glutathione agarose can capture the kinase; if it is intact, it cannot
[3] = target: GFP-TRPM7-Cterm-S1565A (mouse) (UniProt Q923J1); test: as above
[4] = target: GFP-TRPM7-Cterm WT (COOH-terminal fragment of mouse TRPM7, a.a. 1120-1863) (mouse) (UniProt Q923J1); test: as above

binding [1]: binds
B1: GFP-TRPM7-Cterm-L1564P (domain or fragment, UniProt Q923J1 1120-1863)
chain: MAYHEKPVLPPPLIILSHIVSLFCCVCKRRKKDKTSDGPKLFLTEEDQKKLHDFEEQCVEMYFDEKDDKFNSGSEERIRVTFERVEQMSIQIKEVGDRVNYIKRSLQSLDSQIGHLQDLSALTVDTLKTLTAQKASEASKVHNEITRELSISKHLAQNLIDDVPVRPLWKKPSAVNTLSSSLPQGDRESNNPFLCNIFMKDEKDPQYNLFGQDLPVIPQRKEFNIPEAGSSCGALFPSAVSPPELRQRRHGVEMLKIFNKNQKLGSSPNSSPHMSSPPTKFSVSTPSQPSCKSHLESTTKDQEPIFYKAAEGDNIEFGAFVGHRDSMDLQRFKETSNKIRELLSNDTPENTLKHVGAAGYSECCKTSTSLHSVQAESCSRRASTEDSPEVDSKAALLPDWLRDRPSNREMPSEGGTLNGLASPFKPVLDTNYYYSAVERNNLMRPSQSIPFVPVPPRGEPVTVYRLEESSPSILNNSMSSWSQLGLCAKIEFLSKEEMGGGLRRAVKVLCTWSEHDILKSGHLYIIKSFLPEVINTWSSIYKEDTVLHLCLREIQQQRAAQKLTFAFNQMKPKSIPYSPRFLEVFLLYCHSAGQWFAVEECMTGEFRKYNNNNGDEIIPTNTLEEIMLAFSHWTYEYTRGELLVLDLQGVGENLTDPSVIKAEEKRSCDMVFGPANLGEDAIKNFRAKHHCNSCCRKLKLPDLKRNDYTPDKIIFPQDESSDLNLQSGNSTKESEATNSVRLML

binding [2]: binds | binding [1]: no binding
B2: GFP-TRPM7-Cterm-S1565D (domain or fragment, UniProt Q923J1 1120-1863)
chain: B1 chain with P445L, S446D

binding [3]: binds | binding [1]: no binding
B3: GFP-TRPM7-Cterm-S1565A (domain or fragment, UniProt Q923J1 1120-1863)
chain: B1 chain with P445L, S446A

binding [4]: binds | binding [1]: no binding
B4: GFP-TRPM7-Cterm WT (COOH-terminal fragment of mouse TRPM7, a.a. 1120-1863) (domain or fragment, UniProt Q923J1 1120-1863)
chain: B1 chain with P445L
